Consider 62 molecules from PubChem BioAssay AID1508624 (National Center for Advancing Translational Sciences (NCATS), 2021).

The structures appear in SMILES notation. In all, about 48,000 compounds went through this assay and about 120 (0.25%) were called active. Inconclusive results (about 4%) are left out. Calls come from the whole dose curve; as a rule, active = well fitted activation curve with a large enough effect; inconclusive = small, poorly fitted or top-dose-only effect, or another doubt; inactive = no such curve, though single readings can be large or run the other way. The list shows a part of the results.

The experiment can be described thus: Primary qHTS for Identification of Small Molecule Activators of Huntingtin-Antisense Promoter Activity. Note: nearly all actives have a fitted effect of over 55% in size. As to conditions: HEK293 HTT-AS promoter firefly luciferase reporter (activity 0% = vehicle and -100% = no light), 24 h; series mostly up to 57.5 µM; activity change, positive = activation: at the top concentration. The essentials:
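Quantitative HTS used concentration series of up to 57.5 uM final on HEK293 luciferase reporter cells, 24 h at 37 degrees C. Readout was Dual-Glo firefly luminescence.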
(In general: qHTS replaces the single test concentration by a dilution series.)
As for `CCc1ccc2oc(C(=O)NCCc3ccc(OC)c(OC)c3)cc(=O)c2c1`, the “activity change, positive = activation” value is inactive: 0%.

Regarding `COc1ccccc1N1CCN(S(=O)(=O)c2cc(-c3cc(C)no3)ccc2C)CC1`, the “activity change, positive = activation” value is inactive: -5.11%.

With `COc1cccc(CN2C(=O)C3(SCC(=O)N3c3cc(C)cc(C)c3)c3ccccc32)c1` (configuration not stated), the “activity change, positive = activation” value is inactive: -45.5%.

With `O=C(c1ccc2c(c1)OCCO2)N(Cc1cccnc1)c1nc2ccc(Cl)cc2s1`, the “activity change, positive = activation” value was inactive: 24.2%.

`Cc1ccc(-c2nnn(CC(=O)N(CC(=O)NCCC(C)C)c3ccc(F)cc3)n2)cc1`: the “activity change, positive = activation” value is inactive: -8.34%.

In the case of `CCN(CC)C(=O)c1cccc(C)c1`, the “activity change, positive = activation” value is inactive: 1.14%.

On to `Cc1ccc(C(C)C)c(OCC(=O)Nc2nc3c(s2)CCCC3)c1`, for which the “activity change, positive = activation” value is inactive: -19.8%.

For the molecule `CCCCCOC(=O)c1ccc(Nc2nc(C(=O)OCC)nc3ccccc23)cc1`, the “activity change, positive = activation” value is inactive: -8.49%.

`COc1ccc(S(=O)(=O)Nc2cc(-c3cn4cccc(C)c4n3)ccc2C)cc1C`: the “activity change, positive = activation” value is inactive: -15.6%.

For the molecule `O=C(NCCc1ccc(F)cc1)C(=O)NCC(c1ccc2c(c1)OCO2)N1CCOCC1` (configuration not stated), the “activity change, positive = activation” value is inactive: -3.82%.

For the molecule `Cc1coc2c1c(C)cc1oc(=O)c(CC(=O)NCc3ccc(Cl)cc3)c(C)c12`, the “activity change, positive = activation” value was inactive: -5.18%.

Consider `COc1ccccc1Oc1nc2c(C)cccn2c(=O)c1/C=C(\C#N)c1nc2ccccc2[nH]1`, for which the “activity change, positive = activation” value was inactive: -15.4%.

Take `Cc1nn(CC(=O)NCc2cccc(F)c2)c(=O)c2c(C)n(-c3ccc(Cl)cc3)nc12`: the “activity change, positive = activation” value is inactive: -29.7%.

In the case of `COc1ccc(-n2cc(C(=O)NCc3ccc(Cl)cc3)c3ccccc3c2=O)cc1`, the “activity change, positive = activation” value was inactive: -13.1%.

For `Cc1ccc2c(c1)c1c(c(=O)n(-c3ccccc3)c(=O)n1CC(=O)NCCC1=CCCCC1)n2C`, the “activity change, positive = activation” value is inactive: -10.9%.

As to `COc1ccc(N(C(=O)c2ccccc2C)S(=O)(=O)c2ccc(C)cc2)cc1`, the “activity change, positive = activation” value was inactive: -20.8%.

Turning to `CC1CN(C(=O)CCC(=O)NCc2cccs2)c2cc(Cl)ccc2O1` (configuration not stated), the “activity change, positive = activation” value is inactive: -1.64%.

Regarding `CCOC(=O)C1=C(CN2CCN(c3cc(C)ccc3C)CC2)NC(=O)NC1c1ccccc1` (configuration not stated), the “activity change, positive = activation” value was inactive: -41.9%.

As for `CCOC(=O)c1cc(-c2ccc(C)cc2)n(CC(=O)Nc2ccc(OC)c(Cl)c2)c1C`, the “activity change, positive = activation” value is inactive: -44.6%.

Consider `Cc1ccc(CCNC(=O)c2cc3sccc3n2Cc2ccc(Cl)cc2)cc1`, for which the “activity change, positive = activation” value is inactive: -22.4%.

`CC(C)(C)NCC(O)COc1ccc(NC(=O)NC2CCCCC2)cc1` (configuration not stated): the “activity change, positive = activation” value was inactive: 10.3%.

Consider `O=C(Nc1nnc(S(=O)(=O)N2CCCC2)s1)c1ccccc1Cl`, for which the “activity change, positive = activation” value is inactive: -4.45%.

As to `CCn1ccc2cc(S(=O)(=O)N3CCC(C(=O)NCc4ccc(OC(C)C)cc4)CC3)ccc21`, the “activity change, positive = activation” value was inactive: -19.9%.

With `COc1ccc(-c2nc3ccc(C(=O)NCc4ccccc4)cc3nc2-c2ccc(OC)cc2)cc1`, the “activity change, positive = activation” value was inactive: -15.8%.

Regarding `Cc1ccccc1NC(=O)c1ccccc1NC(=O)c1ccccc1F`, the “activity change, positive = activation” value was inactive: -0.755%.

Turning to `CCCSc1nnc2c(n1)OC(CC)N(C(C)=O)c1ccccc1-2` (configuration not stated), the “activity change, positive = activation” value is inactive: -3.55%.

As to `O=C(CN1C(=O)COc2ccc(S(=O)(=O)N3CCCCC3)cc21)NCCc1ccc(Cl)cc1`, the “activity change, positive = activation” value was inactive: -9.24%.

As for `COC(=O)COc1ccc(Oc2nc(NC(C)(C)C)nc(N3CCOCC3)n2)nn1`, the “activity change, positive = activation” value was inactive: -3.76%.

In the case of `CCOc1ccccc1CNC(=O)Cn1nc(C)c2nn(-c3ccc(Cl)cc3)c(C)c2c1=O`, the “activity change, positive = activation” value is inactive: -25.1%.

Consider `COc1ccc(N2CCN(S(=O)(=O)c3c(C)nc4sc(C)cn4c3=O)CC2)cc1`, for which the “activity change, positive = activation” value was inactive: -2.61%.

With `COc1ccc(Cc2nc3c4cnn(-c5ccccc5Br)c4ncn3n2)cc1`, the “activity change, positive = activation” value was inactive: -4.61%.

Turning to `CC1=C(c2ccc(C)c(C)c2)S(=O)(=O)N(Cc2ccc(C(=O)NCc3ccc(C)cc3)cc2)C1=O`, the “activity change, positive = activation” value is inactive: -13.3%.

As to `Cc1cccc(OCC(=O)NCc2ccc3c(c2)CCN3C(=O)c2ccccc2)c1`, the “activity change, positive = activation” value is inactive: -8.67%.

With `CCC(C)NC(=O)c1sc2nc(C)c(C(=O)Nc3ccc(C)cc3C)c(-c3ccc(Br)cc3)c2c1N` (configuration not stated), the “activity change, positive = activation” value is inactive: -5.61%.

Take `COc1cc(C2NC(=O)N(C)C3=C2C(=O)N(c2ccccc2)C3)ccc1O` (configuration not stated): the “activity change, positive = activation” value is inactive: 1.16%.

Turning to `Cc1ccc2[nH]c(=O)c3cc(C(=O)N4CCN(c5ccccc5F)CC4)sc3c2c1`, the “activity change, positive = activation” value was inactive: -5.3%.

As for `COc1ccc(-c2cnc(NCc3ccc(C)cc3)n2C)cc1`, the “activity change, positive = activation” value was inactive: -15.7%.

As for `O=C(CSc1nc(-c2ccccc2)cc(=O)[nH]1)Nc1ccccc1F`, the “activity change, positive = activation” value was inactive: -3.01%.

Consider `CC1=C(C(=O)Nc2ccc(C)c(C)c2)C2(CCCCCC2)OC1=O`, for which the “activity change, positive = activation” value is inactive: -23.3%.

For `COc1ccc(CCNC(=O)CSc2nc3ccccc3nc2Cc2ccc(C)cc2)cc1OC`, the “activity change, positive = activation” value is inactive: -17.1%.

As for `COc1ccccc1CNC(=O)c1nn(-c2ccc(C)cc2)c(=O)c2c1c1ccccc1n2C`, the “activity change, positive = activation” value was inactive: -2.23%.

Regarding `Cc1cccc(CSc2ncc(Cl)c(C(=O)Nc3sc4c(c3C#N)CCCC4)n2)c1`, the “activity change, positive = activation” value was inactive: -3.44%.

Turning to `CCN(CC)c1nc2c(S(=O)(=O)c3ccc(C)cc3)nnn2c2ccsc12`, the “activity change, positive = activation” value is inactive: -15.9%.

As for `COc1ccccc1NC(=O)CSc1oc(-c2cccs2)nc1S(=O)(=O)c1ccc(C)cc1`, the “activity change, positive = activation” value is inactive: -0.81%.

For the molecule `O=C(NCc1ccccc1)c1cccc(NC(=O)N2CCSc3ncccc32)c1`, the “activity change, positive = activation” value is inactive: -10.4%.

As to `CCN(CC)CCOc1ccc(C(O)(Cc2ccc(Cl)cc2)c2ccc(C)cc2)cc1` (configuration not stated), the “activity change, positive = activation” value is inactive: -4.98%.

Consider `CCc1cccc(CC)c1NC(=O)Cc1csc(C)n1`, for which the “activity change, positive = activation” value was inactive: -9.17%.

Turning to `Cc1cccc(CN2C(=O)c3ccccc3Sc3ccc(C(=O)NCCc4ccccc4)cc32)c1`, the “activity change, positive = activation” value was inactive: -21.9%.

`CCC(=O)N1CCc2cc(CNS(=O)(=O)c3ccc(Cl)s3)ccc21`: the “activity change, positive = activation” value was inactive: -28.3%.

As for `Cc1cc(Nc2cccc(F)c2)n2nc(-c3ccco3)nc2n1`, the “activity change, positive = activation” value is inactive: -7.28%.

As for `COc1ccc(/C=C/C(=O)Nc2ccc(Cl)c(Cl)c2)cc1OC`, the “activity change, positive = activation” value was inactive: -2.46%.

`O=C(Cn1c(=O)oc2cc(S(=O)(=O)NCc3ccccc3)ccc21)NCc1ccc(F)cc1`: the “activity change, positive = activation” value is inactive: -21.1%.

Regarding `CCOc1ccc(NC(=O)c2cc(CN3CCCC3)on2)cc1`, the “activity change, positive = activation” value is inactive: -9.22%.

As for `O=C(Cn1nc(C(F)(F)F)c2c1CCCC2)Nc1ccc(F)c(Cl)c1`, the “activity change, positive = activation” value was inactive: -56.1%.

For the molecule `COc1ccc(-c2ccc(=O)n(CC(=O)Nc3ccc(N(C)C)cc3)n2)cc1`, the “activity change, positive = activation” value is inactive: 1.98%.

Take `Cc1c(C(=O)NCc2ccc(F)cc2)sc2nc3n(c(=O)c12)CCC3`: the “activity change, positive = activation” value was inactive: -6.45%.

Turning to `CSc1ccc(C2c3c(oc4ccc(F)cc4c3=O)C(=O)N2c2ccc(C)cn2)cc1` (configuration not stated), the “activity change, positive = activation” value is inactive: -1.06%.

Take `Cc1c(NC(=O)c2cc3ccccc3o2)cccc1-c1nc2ccccc2o1`: the “activity change, positive = activation” value was inactive: -27.1%.

Take `Cc1ccc2nc(Nc3ccc(Br)cc3)nc(-c3ccccc3)c2c1`: the “activity change, positive = activation” value is inactive: -13.8%.

In the case of `Cc1cccc(N(C)C(=O)C2CCN(S(=O)(=O)c3cccc4nonc34)CC2)c1`, the “activity change, positive = activation” value was inactive: -16.7%.

For `CCCCc1nn2c(=O)cc(COC(=O)CNC(=O)c3ccccc3C)nc2s1`, the “activity change, positive = activation” value was inactive: -19.8%.

For `CCOc1ccc2oc(=O)cc(CN3CCN(C(=O)c4ccc(Cl)cc4)CC3)c2c1`, the “activity change, positive = activation” value is inactive: -33.4%.
